# Experimental data as given in the supplement of paper PMC8728848.
# The other results are listed elsewhere or left out.
# B1: FimA-N3 (Actinomyces oris) (protein)
# chain: MHHHHHHSSGVDLGTENLYFQSNAGLQGAQFQLYKAKNAYANTCSNEKEGAPIAINGQTTLTTDAQGAIDIKGLFISDSIDGADRDNQVNAMERCYVLVETKAPAGYVLPAGNGAATPVKVKAGEETTDN
# What was measured:
# Test in all cases: glycan array binding signal (z-score within array); higher = stronger binding
# Conditions in all cases: glycan notation: IUPAC condensed, linker removed
# [1] = target: Fuc(a1-2)Gal
# Procedure, shortened: (§1)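 The binding signal is a Z-score computed within each array. Data were drawn from 3228 arrays in the Consortium for Functional Glycomics database, restricted to those with a known protein sequence. Scores were averaged over arrays of the same protein sequence at different concentrations or buffers, and over linkers, and negative values can be taken as non-binding.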
# [2] = target: Fuc(a1-2)Gal(b1-3)GalNAc
# Procedure, shortened: as §1
# [3] = target: Fuc(a1-2)Gal(b1-3)GalNAc(a1-3)[Fuc(a1-2)]Gal(b1-4)Glc
# Procedure, shortened: as §1
# [4] = target: Fuc(a1-2)Gal(b1-3)GalNAc(a1-3)[Fuc(a1-2)]Gal(b1-4)GlcNAc
# Procedure, shortened: as §1
# [5] = target: Fuc(a1-2)Gal(b1-3)GalNAc(b1-3)Gal
# Procedure, shortened: as §1
# [6] = target: Fuc(a1-2)Gal(b1-3)GalNAc(b1-3)Gal(a1-4)Gal(b1-4)Glc
# Procedure, shortened: as §1
# [7] = target: Fuc(a1-2)Gal(b1-3)GalNAc(b1-4)[Neu5Ac(a2-3)]Gal(b1-4)Glc
# Procedure, shortened: as §1
# [8] = target: Fuc(a1-2)Gal(b1-3)GlcNAc
# Procedure, shortened: as §1
# [9] = target: Fuc(a1-2)Gal(b1-3)GlcNAc(b1-2)Man(a1-3)[Fuc(a1-2)Gal(b1-3)GlcNAc(b1-2)Man(a1-6)]Man(b1-4)GlcNAc(b1-4)GlcNAc
# Procedure, shortened: as §1
# [10] = target: Fuc(a1-2)Gal(b1-3)GlcNAc(b1-2)Man(a1-3)[Fuc(a1-2)Gal(b1-3)GlcNAc(b1-2)Man(a1-6)]Man(b1-4)GlcNAc(b1-4)[Fuc(a1-6)]GlcNAc
# Procedure, shortened: as §1
# [11] = target: Fuc(a1-2)Gal(b1-3)GlcNAc(b1-3)Gal(b1-4)Glc
# Procedure, shortened: as §1
# [12] = target: Fuc(a1-2)Gal(b1-3)GlcNAc(b1-3)GalNAc
# Procedure, shortened: as §1
# [13] = target: Fuc(a1-2)Gal(b1-3)GlcNAc(b1-3)[Fuc(a1-2)Gal(b1-3)GlcNAc(b1-6)]GalNAc
# Procedure, shortened: as §1
# [14] = target: Fuc(a1-2)Gal(b1-3)GlcNAc(b1-3)[Gal(b1-4)GlcNAc(b1-6)]Gal(b1-4)Glc
# Procedure, shortened: as §1
# [15] = target: Fuc(a1-2)Gal(b1-3)GlcNAc(b1-3)[Neu5Ac(a2-6)Gal(b1-4)GlcNAc(b1-6)]Gal(b1-4)Glc
# Procedure, shortened: as §1
# [16] = target: Fuc(a1-2)Gal(b1-3)GlcNAc6S
# Procedure, shortened: as §1
# [17] = target: Fuc(a1-2)Gal(b1-3)[Fuc(a1-4)]GlcNAc
# Procedure, shortened: as §1
# [18] = target: Fuc(a1-2)Gal(b1-3)[Fuc(a1-4)]GlcNAc(b1-2)Man(a1-3)[Fuc(a1-2)Gal(b1-3)[Fuc(a1-4)]GlcNAc(b1-2)Man(a1-3)]Man(b1-4)GlcNAc(b1-4)GlcNAc
# Procedure, shortened: as §1
# [19] = target: Fuc(a1-2)Gal(b1-3)[Fuc(a1-4)]GlcNAc(b1-2)Man(a1-3)[Fuc(a1-2)Gal(b1-3)[Fuc(a1-4)]GlcNAc(b1-2)Man(a1-6)]Man(b1-4)GlcNAc(b1-4)[Fuc(a1-6)]GlcNAc(b1-4)[Fuc(a1-6)]GlcNAc
# Procedure, shortened: as §1
# [20] = target: Fuc(a1-2)Gal(b1-3)[Fuc(a1-4)]GlcNAc(b1-3)[Fuc(a1-3)[Gal(b1-4)]GlcNAc(b1-6)]Gal(b1-4)Glc
# Procedure, shortened: as §1
# [21] = target: Fuc(a1-2)Gal(b1-3)[Fuc(a1-4)]GlcNAc(b1-3)[Gal(b1-4)GlcNAc(b1-6)]Gal(b1-4)Glc
# Procedure, shortened: as §1
# [22] = target: Fuc(a1-2)Gal(b1-4)Glc
# Procedure, shortened: as §1
# [23] = target: Fuc(a1-2)Gal(b1-4)Glc6S
# Procedure, shortened: as §1
# [24] = target: Fuc(a1-2)Gal(b1-4)GlcNAc
# Procedure, shortened: as §1
# [25] = target: Fuc(a1-2)Gal(b1-4)GlcNAc(b1-2)Man
# Procedure, shortened: as §1
# [26] = target: Fuc(a1-2)Gal(b1-4)GlcNAc(b1-2)Man(a1-3)[Fuc(a1-2)Gal(b1-4)GlcNAc(b1-2)Man(a1-6)]Man(b1-4)GlcNAc(b1-4)GlcNAc
# Procedure, shortened: as §1
# [27] = target: Fuc(a1-2)Gal(b1-4)GlcNAc(b1-2)Man(a1-3)[Fuc(a1-2)Gal(b1-4)GlcNAc(b1-2)Man(a1-6)]Man(b1-4)GlcNAc(b1-4)[Fuc(a1-6)]GlcNAc
# Procedure, shortened: as §1
# [28] = target: Fuc(a1-2)Gal(b1-4)GlcNAc(b1-2)[Fuc(a1-2)Gal(b1-4)GlcNAc(b1-4)]Man(a1-3)[Fuc(a1-2)Gal(b1-4)GlcNAc(b1-2)Man(a1-6)]Man(b1-4)GlcNAc(b1-4)GlcNAc
# Procedure, shortened: as §1
# [29] = target: Fuc(a1-2)Gal(b1-4)GlcNAc(b1-3)Gal(b1-4)GlcNAc
# Procedure, shortened: as §1
# [30] = target: Fuc(a1-2)Gal(b1-4)GlcNAc(b1-3)Gal(b1-4)GlcNAc(b1-2)Man(a1-3)[Fuc(a1-2)Gal(b1-4)GlcNAc(b1-3)Gal(b1-4)GlcNAc(b1-2)Man(a1-6)]Man(b1-4)GlcNAc(b1-4)GlcNAc
# Procedure, shortened: as §1
binder,measurement,setting,value
B1,glycan array binding signal (z-score),[1],-0.054
same,glycan array binding signal (z-score),[2],-0.501
same,glycan array binding signal (z-score),[3],-0.046
same,glycan array binding signal (z-score),[4],-0.565
same,glycan array binding signal (z-score),[5],5.62
same,glycan array binding signal (z-score),[6],-0.436
same,glycan array binding signal (z-score),[7],-0.174
same,glycan array binding signal (z-score),[8],-0.447
same,glycan array binding signal (z-score),[9],0.279
same,glycan array binding signal (z-score),[10],-0.196
same,glycan array binding signal (z-score),[11],0.208
same,glycan array binding signal (z-score),[12],-0.296
same,glycan array binding signal (z-score),[13],0.427
same,glycan array binding signal (z-score),[14],-0.19
same,glycan array binding signal (z-score),[15],-0.408
same,glycan array binding signal (z-score),[16],0.218
same,glycan array binding signal (z-score),[17],-0.303
same,glycan array binding signal (z-score),[18],-0.423
same,glycan array binding signal (z-score),[19],-0.528
same,glycan array binding signal (z-score),[20],-0.6
same,glycan array binding signal (z-score),[21],-0.382
same,glycan array binding signal (z-score),[22],-0.14
same,glycan array binding signal (z-score),[23],-0.423
same,glycan array binding signal (z-score),[24],-0.219
same,glycan array binding signal (z-score),[25],-0.23
same,glycan array binding signal (z-score),[26],-0.425
same,glycan array binding signal (z-score),[27],-0.309
same,glycan array binding signal (z-score),[28],-0.266
same,glycan array binding signal (z-score),[29],-0.556
same,glycan array binding signal (z-score),[30],0.137
